Data: a compilation of properties of binary mixtures (doi:10.1021/ie401130d)
The densities may have been worked out from excess volumes.

Experiment: xn = mol fraction of the nth substance listed
Settings: 101 kPa

CC(=O)[O-].CC[n+]1ccn(C)c1 + O
mass density [kg/m3]
Settings	298.15 K	303.15 K	308.15 K	313.15 K	318.15 K	323.15 K	328.15 K	333.15 K	338.15 K
x2 = 0	1101.9	1098.8	–	1092.7	1089.7	–	–	1080.6	1077.7
x2 = 0.0258	–	–	1096.1	1093	1090	1087	–	1081	1078
x2 = 0.0374	1102.3	1099.3	1096.2	1093.2	1090.1	1087.1	1084.1	1081.1	–
x2 = 0.0488	–	1099.4	1096.3	–	1090.3	1087.3	1084.3	1081.3	1078.3
x2 = 0.0599	1102.6	1099.6	–	–	1090.4	1087.4	–	1081.4	–
x2 = 0.0725	–	1099.7	1096.6	1093.6	1090.6	1087.6	1084.6	–	1078.6
